Drawing on the RNAGym collection of RNA variant scans (doi:10.7554/elife.90254), this text covers self-cleavage for 112 variants.

Read counts are not given, so values of variants with three or more changes are uncertain.

B1: LINE1-mini (parent)
chain: GGCAGAGCUCAACACAGCGUGGCAAAGUGGCUGUGGCUAGACUGCC

In the data set the parent is B1. Briefly: self-cleavage, relative activity (ratio to wild type); higher = more cleavage; in vitro, sequencing; the parent is a self-cleaving ribozyme.
Turning to GGCAGUACUGAACACAGCGUGUCAAAGUGGCUGUGGCAAGACUGCC, the self-cleavage was 0.
For GGCAGUGCUCAACACAGUGUGGCAAAGUGGCUAUGGCUAGAUUGCA the value was 0.11.
For GGCAGUACUCAAGACAUCGUGACAAAGUGGCUGUGGCUAUACUGCC the value was 0.02; for GGCAGUAAUCAACACAGGGUGGCAAAGUAGCUGUGGCUAGCCUGCC, 1.09.
In the case of GGCAGUGCUCAACACAGCGUGGCAAAGUGGCUGUGGCUUGUCUGCC, the self-cleavage amounted to 0.62.
For the variant GGCAGUUCGCAACACUGCGUAGCAAAGUGGCUGUGGCUAGACUGCC, the self-cleavage amounted to 0.05.
For the variant GGCAGUGCUCAAGACAGCGUGGCAAACUGCCUGUGGCUAGACUGCC, the self-cleavage was 0.02.
In the case of GGCAGUGCUCAACACAGCGUGGAAAGGUGGCUGUGGCUAGACUGCC, the self-cleavage is 0.47.
For GGCAGUUCUCAACACAGCUUUGCAAAGUGGCUGUGGCUAGACUGCC the value was 0.04; for GGCAGUGCUCAACACAGCGUGUCAAAGUGGUUGCGGCUAAACUGCC, 0.15.
For GGCAGUGCUCAACACAGCGUAGCAAAAUGGCUGUGGCUAGACUGCC the value was 1.64; for GGCAGUGCUCAAGACAGCGUGGCAAAGUGGCUGUGUCUAGACUGCC, 0.24; for GGCAGUGCUCAACACAGCUUGGCAAAGUGGCUGUGGCUAGACUGCU, 1.38.
For GGCAGUGCUCAACACAGCGUGGCAAAGUGGCUGUGGCUAGGAUGUC the value was 0.09; for GGCAGUGCUCAAUACAGCGUGGCAAAGGGGAUAUGGCUAGACUGCC, 0.19; for GGCAGUGCUCAACAUAGCGUGGCAAAGUGGCUGUGGCUAGAAUGCC, 0.17.
For GGCAGUGCUCAACACAGCGUGGGAAAGUGGCUGUGGCUAGUCUGCC, the self-cleavage was found to be 0.06.
For GGCAGUGCUCAACACAGCGUGGCAAAGUGGCUGUGGCUAGAUAGCC the value was 0.04; for GGCAGUGGUCAACACAGCCUGGCAAAGUGGCUGUGGCCAGACUGCC, 0.01.
For GGCAGUGCUAAACACCACGCGGCAAAGUGGCUGUGGCUAGACUGCC the value was 0.01.
With GGCAGUGCUCAACACAGUGUGGCAAAGUUGCUGUGGCUAGACUGCC, the self-cleavage amounted to 0.48.
For GGCAGUGCUCAACACAGCGUGGCAAAGUGGCUGUGGCUUGAGCGCU the value was 0.03; for GGCAGUGUUCAACACAGCGUGGGAAAGUGUCUGUGGCUAGGCUGAC, 0.73; for GGCAGUGCUCAACACAGAGUGGCAAAGUGGCCCUGGCUAGACUGGC, 0.
Take GGCAGUCCUCAACACAGCGUGGCAAAGUGGCUGAGGCUCGACUGCC: the self-cleavage was 0.33.
GGCAGUGCUCAACACAGCGUGGCAAUGUGGCUGCGGGUAGACUCCC: the self-cleavage was determined as 0.06.
For GGCAGUUCUCAACACAGCGCGGCAAAGUGGCUGUGGCUAGCCUGCC the value was 0.15; for GGCAGUGCUUAAUACAGCGUGGCAAAGGAGCUGGGCCUAGACAUCC, 0.01; for GGCAGUGUUCAACACAGCGUGGCAAAGUCGCUGUUGCUAGACUGCC, 0.03.
For GGCAGUGUUCAACACAGCGUGGCAAAGGGGCUGUGGCUAGACUGCC the value was 0.08; for GGCAGUUCUCAACACAGCGUGGCAAAGUGGACGAGGCUAGACUGCC, 0.11.
For GGCAGUGCUCAACACAGCGUAGCAAAGUGGCUGUGCCUAGACUGCU the value was 0.08.
In the case of GGCAGUGCUCAAGACCGCGUGGCAAAGUGGCUGUGGCUAGACUGCC, the self-cleavage is 0.05.
GGCAGUGUUCAACACAGCGUAGCAAAGUGGCUAUGGCUAGACUGCC: the self-cleavage is 0.14.
On to GGCAGUGGUCAACACAGCGUGGCAAAGUGGGUGUGGCUAGACUGAC, for which the self-cleavage was found to be 0.04.
For GGCAGUGCUCAACAGAUUGUGGCAAAGUGGCUGUGGCUAUACUGCC the value was 0.06.
For GGCAGUGCUCAACACAGCGUAGCAAAGUGGCUGUGCCUAGACUGCC the value was 0.17.
For GGCAGUGCUCAACACAGCCUGGCAAAGUGGCUGUGGCUAGACUGUC the value was 1.88; for GGCAGUGCUCAACAUAGCGUGGCAAAGUGGAUGUGGCUAGACUGCC, 0.17; for GGCAGUGCUCAACACAGCGUGGCAAAGUGGCUGUGGCUAGAAUGAC, 0.01.
As for GGCAGUGUUCAUCACAGCGUGGAAAAGUGGCUGUGGAUAGACGGCC, the self-cleavage amounted to 0.
For the variant GGCAGUGCUAAACACAGCGUGGCAACGUGGCUGUGGCUAGACUGCC, the self-cleavage came to 0.05.
With GGCAGUUCUCAACACAGCGUGGCAAAGUGGUUGUGGCUAGACUGCC, the self-cleavage is 0.03.
For GGCAGUGCUGAACACAUCGUGGCAAAGUGGCUGCGGCUAGACUGCC the value was 0.
Consider GGCAGUGCUCAACACAGGGUGGCAAAGUGGCUGUGCCUAGACUUCC, for which the self-cleavage was found to be 0.09.
For GGCAGUGCUCAAGACAGAGUUGCAAAGGGGCUGUGGCUAGACUGCC the value was 0.04.
With GGCAGUGCUCAACACAGCGUUGCAAAGUGGCUGUGGAUAGACUGCG, the self-cleavage was 0.12.
For GGCAGUGCUCAACACAGCUUGGCUAAGUGGCUGUGGCUAGACUGCC the value was 0.6; for GGCAGUGCUCAAUACAGCGUGGCAAAGUGGCUUUGGCUAGACUGAC, 0.13; for GGCAGUGCUCAACACAGCGUGACAAAGUGGCUGUGGCUAGACUGGC, 0.06.
For GGCAGUGCUUAACACAGCGUGGCACAGUGGCUGUGGCUAGACUGCC the value was 0.08; for GGCAGUCCUCAACACAGCGUGGCAAAGUGGUUGUGGCUAGACUGAC, 0.02.
For GGCAGUCCUCAACACAGCGUGGCGAGGUGGCUGUGGCUAUACUGCC the value was 0.27.
GGCAGUGCUCAACACAGCGUGGAAUAGUGGCUGUGGCUAGACUGGC: the self-cleavage is 0.4.
As to GGCAGUACUCAACAUCGCGUGGCAAAGUGGCUGUGGCUAGACUGCU, the self-cleavage amounted to 0.54.
For GGCAGUGCUCAACACAGCGUGGCAAAGUGGAUGUGGCUAGAGUGCC, the self-cleavage is 0.02.
With GGCAGUGCUCAACAAAGCGUGGCAAAAUGGGUGUUGGUAGACUGCC, the self-cleavage turned out to be 0.03.
For GGCAGUUCACAACACAGCCUGGCAAAGUGGCUGUGGCAAAACUGCC, the self-cleavage was determined as 0.01.
For GGCAGUGCUCAACACACCGUGGCAAAGUGGCUUUGGCUAGACUGCC the value was 0.02.
For GGCAGUGCUCAACACAGCGUGUCAAAGUGCCUGUGGCUAGACUGCC the value was 2.5; for GGCAGUGCUCAACACAGCCUGGCAAAGUGGCUGCGGCUAGACUGCC, 0.26.
For GGCAGUGCUGAACACAGCGUGGCAAAGAGGCUGUGGCUAGACUGCC the value was 0.01; for GGCAGUGCUCAAGACAGCGUGGCAAAGUGGCUGUUGCUAGACUGCC, 0.55.
As for GGCAGUGCUCAACACAGCCUGGCAAAGUGGCUAUGGCUAGACUGCC, the self-cleavage worked out at 0.07.
As for GGCAGUGCUCAAUACAGCGUGGCAAAGUGGCUGUGCCUAGACUGCC, the self-cleavage was 0.04.
GGCAGUGCUCAACACAGUGUGGCAAAUUGGCUGUGCCUAGACUGCC: the self-cleavage amounted to 0.07.
For GGCAGUACUCAACACAGCGAGGCAAAGUGGCUGUGGCUAGACUGUC the value was 0.03; for GGCAGUGUUCACCACCGCGUGGCAAAGUGGCUGUGGCUGUACUGCC, 0.02.
Regarding GGCAGUGCUAAACACAGCGUGGCAAAAUGGCUGUGGCGAGCCUGCC, the self-cleavage was 0.
On to GGCAGUGCUAAACAGAGCGUGGCAAAGUGGCUGUGGCUAGACUGCC, for which the self-cleavage was 0.
For GGCAGUGCUGAACACAGCGAGGCAAAGUGGCUGUGGCUAGACUGCC the value was 0.05.
With GGCAGUGGUCAACACAGCGUGGCACAGUGGCUGUGGCUAGACUCCC, the self-cleavage turned out to be 0.05.
For GGCAGUGCUCAACACAGCGUGGAAAAGUGGCUGUGGCUCGACUGCC the value was 0.35.
Turning to GGCAGUGAUCAACACAGCGUGGCAAAGUGGCUGUGACUAGACUGCC, the self-cleavage is 0.51.
For GGCAGUGCUCAACACAGCGUAGCAAAGUGGCUGUUGCUAGACUGCC the value was 0.1; for GGCAGUGCUCAAUACAGUGUGGAAAAGUGGCUGUGGCUAGACUGCC, 0.16.
With GGCAGUGUUCAACACAGCGGGGCAAAGUGGCUGUGGCUAGACUACC, the self-cleavage came to 0.05.
As for GGCAGUGUUCAACAAAGCGUGGCAAAGUGGCUGUGGCUAGACUGUC, the self-cleavage was 0.12.
GGCAGUUCUCAACACAGCGUCGGAAAGUCGCUUUGGGUAGACUGCC: the self-cleavage is 0.01.
In the case of GGCAGUGCUCAACACAGCGUUGUAAAGUGGCUGUGGCUAUACUGCC, the self-cleavage came out at 1.26.
For GGCAGUGCUCAACACAUCUGGGCAUAGUGGCUGUGGCUAGACUGCC the value was 0.12.
In the case of GGCAGUGCUCAACACAGCGUGGCAAAGUGGCUGUGGGAAGACUGCC, the self-cleavage was determined as 0.04.
Turning to GGCAGUGCUCAACAUAGCGGGGCACAGUGGCUGUGGCUAGACUGCC, the self-cleavage was determined as 0.05.
In the case of GGCAGUCCUCAACACAGCGUCGCAAAGUGGCUGUGGCUAAACUGCC, the self-cleavage stood at 0.16.
With GGCAGUACGCAACACAGCGUGGCAAAGUGGUUGUGGCUAGACUGCC, the self-cleavage was found to be 0.01.
For GGCAGUGCUCAACACAGCGUUGCAAAGUCGCUGGGGCAAGACUGCC the value was 0.05; for GGCAGUUCUCAACACAGCGUGGCAAAGUGUCUGUGGCUAGACUGCU, 0.08; for GGCAGUGCUCAACACAGCGUGGCAAAGUGGAUGUGGCUAGUCUGCC, 0.05.
As for GGCAGUGGUCAACACAGCGUGGCAAAGUGGCUGUGUCUAUACUGCC, the self-cleavage amounted to 0.07.
For GGCAGUGCUCAACACAGCAUGGCAAAGUGGCUGUGGCUAGAGUGCC the value was 0.11; for GGCAGUGCUCAAAACAGCGUGGCAAAGUGGCUGUGGAUAGACUGCC, 0.04.
In the case of GGCAGUGCUCAAAACAGCAUGGCAAAGUGGUUGUGGCUAGACUGCC, the self-cleavage came to 0.05.
For GGCAGUGCUCAACACAGCGUGGCAAAGUGGCUGUGGUUAGACAGCC the value was 0.12; for GGCAGUGCUCAACACAGCGUGUAAAAGUGGCUGUGGCUAGACUGCC, 0.43; for GGCAGUGUUCAACACAGAGUGGCAAAGUGGCUGUGGCUAGACUGCC, 0.06.
For GGCAGUGCUCAACACAACGUGGCAAAGUGGCGGUGGCUAGACUGCC the value was 0.03; for GGCAGUUCUCAACACAGCGUGACAAAGUGGCUCUGGCUAGACUGCC, 0.1; for GGCAGUGAUCAACAGAGCGUGGCAAACUGGCUGUGGCUAGACUGCC, 0.03.
GGCAGUGCUCAAGACAGGGUGCCAAAGUUGCUGUGGCUAGACUGCC: the self-cleavage turned out to be 0.03.
Take GGCAGUGCUUAACACAGCGUGGCAAAGUUGCUGUGGCUAGACUGCC: the self-cleavage was 0.14.
For GGCAGUGCUGAACACAGCGCGGCAAAGUGGAUGUGGCUAGACUGCC the value was 0.02.
For GGCAGUGCUAAGCACAGCGUGGCAAAGUUGCUGUGGUUAGACUGCC the value was 0; for GGCAGUGCUGAAAACAGCGUGGCAAAGUGGCUGUGGCUAGACUGCC, 0.07; for GGCAGUGCUUAACACAGCGUGGCAAAGUGGCUGUGGCUACACUGCC, 0.03.
For the variant GGCAGUGCUCAACACAGCAUGGCAAAGUGGCUGUGGCCAGACUGCC, the self-cleavage was found to be 0.49.
For the variant GGCAGUGAUCAACACAGCGCGGCAAAGUGGCUGUGGCUAGAUUGCC, the self-cleavage came to 0.04.
For GGCAGUGCUCAACAAAGAGCGGCAAAGUCGCUGUGGCUAGACUGCC the value was 0.21; for GGCAGUGCUCAACACAUCGUCGCGCAGUGGCUGUGGCUUGAAUGCC, 0.05; for GGCAGUGCUAAACACAGCGUGGCAUAGUGGCUGUGGCUAGACUGCC, 0.07.
For GGCAGUGCUCAACACAGCUUGGCAAAGUGGCUGUGGCUAAACUGCC the value was 0.03.
In the case of GGCAGUGCUCAACACAGCGUGGCAAAGUGGCUGUGGCUAGAUGCCC, the self-cleavage came out at 0.15.
Consider GGCAGUGCUCAACACAGCGUUGCAAAGUGGCUGUGGCUAGACCGCC, for which the self-cleavage came out at 0.05.
